This experiment deals with T1, ARHGAP23 (mouse (endogenous in mouse keratinocytes)) (UniProt Q69ZH9).
T1 sequence: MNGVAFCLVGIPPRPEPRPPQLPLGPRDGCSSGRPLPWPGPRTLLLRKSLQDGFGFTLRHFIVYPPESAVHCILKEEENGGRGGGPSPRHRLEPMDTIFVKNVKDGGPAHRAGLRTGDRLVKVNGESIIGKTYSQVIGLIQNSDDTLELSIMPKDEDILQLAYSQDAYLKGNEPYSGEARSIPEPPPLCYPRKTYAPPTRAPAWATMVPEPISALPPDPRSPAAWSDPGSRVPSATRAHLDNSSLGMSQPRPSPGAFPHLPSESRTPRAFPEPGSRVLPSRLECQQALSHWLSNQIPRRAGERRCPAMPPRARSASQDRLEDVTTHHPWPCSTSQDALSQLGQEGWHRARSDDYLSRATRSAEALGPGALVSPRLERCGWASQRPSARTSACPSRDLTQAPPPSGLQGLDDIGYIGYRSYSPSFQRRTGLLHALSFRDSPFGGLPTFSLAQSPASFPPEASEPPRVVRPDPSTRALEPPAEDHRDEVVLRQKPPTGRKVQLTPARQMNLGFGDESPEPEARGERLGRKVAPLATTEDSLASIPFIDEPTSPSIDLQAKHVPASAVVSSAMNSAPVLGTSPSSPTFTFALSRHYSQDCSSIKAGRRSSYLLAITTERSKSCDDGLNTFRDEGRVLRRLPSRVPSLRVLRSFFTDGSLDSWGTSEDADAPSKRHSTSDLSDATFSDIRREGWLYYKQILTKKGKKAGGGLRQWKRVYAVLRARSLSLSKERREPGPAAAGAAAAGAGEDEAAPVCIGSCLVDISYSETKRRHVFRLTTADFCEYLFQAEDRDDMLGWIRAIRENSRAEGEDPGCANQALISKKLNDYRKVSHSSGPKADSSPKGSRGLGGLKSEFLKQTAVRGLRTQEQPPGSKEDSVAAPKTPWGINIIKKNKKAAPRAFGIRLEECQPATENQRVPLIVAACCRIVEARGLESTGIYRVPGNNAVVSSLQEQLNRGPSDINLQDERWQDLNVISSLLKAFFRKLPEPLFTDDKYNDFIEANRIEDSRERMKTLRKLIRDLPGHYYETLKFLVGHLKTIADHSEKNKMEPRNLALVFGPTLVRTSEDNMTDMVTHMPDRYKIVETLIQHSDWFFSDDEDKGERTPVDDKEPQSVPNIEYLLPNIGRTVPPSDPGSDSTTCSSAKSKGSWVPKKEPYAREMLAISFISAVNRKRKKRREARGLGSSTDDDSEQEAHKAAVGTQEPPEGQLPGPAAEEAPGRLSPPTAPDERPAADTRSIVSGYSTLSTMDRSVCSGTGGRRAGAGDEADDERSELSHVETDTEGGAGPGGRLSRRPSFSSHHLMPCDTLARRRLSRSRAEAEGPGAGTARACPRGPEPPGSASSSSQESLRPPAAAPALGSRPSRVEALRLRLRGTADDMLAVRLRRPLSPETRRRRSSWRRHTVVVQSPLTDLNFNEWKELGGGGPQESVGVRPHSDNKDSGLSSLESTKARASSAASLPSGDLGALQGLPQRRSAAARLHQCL
Put plainly: co-IP; anti-ARHGAP23 antibody and Protein A agarose on lysates of WT and PKP4-KO keratinocytes kept 24 h in HCM; normal rabbit IgG as control; IP buffer with 1% NP-40, 137 mM NaCl; western blot.

Protein sequences, listed by entry. Tags and fused reporters are not part of them.
UniProt Q9QUI0: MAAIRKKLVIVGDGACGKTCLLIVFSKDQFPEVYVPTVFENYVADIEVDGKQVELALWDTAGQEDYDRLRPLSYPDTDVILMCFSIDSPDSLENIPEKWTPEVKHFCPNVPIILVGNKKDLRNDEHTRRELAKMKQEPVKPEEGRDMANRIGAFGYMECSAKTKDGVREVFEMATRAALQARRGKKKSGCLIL

These are yes or no findings as the source states them, for the method shown. In cells and extracts the contact can be indirect. Some entries that bind do so weakly or less than the wild type.

As to RhoA (from UniProt Q9QUI0 1-193), the binding entry is recorded as “binds”.

Source of the values: publication PMC11335210.
